Source: the RNAGym collection of RNA variant scans (doi:10.7554/elife.90254)
The source gives no read counts; variants with many changes may rest on few reads.

B1: LINE1-mini (parent)
chain: GGCAGAGCUCAACACAGCGUGGCAAAGUGGCUGUGGCUAGACUGCC

Variants of: B1
Assay: self-cleavage, relative activity (ratio to wild type); higher = more cleavage; in vitro, sequencing; the parent is a self-cleaving ribozyme
G1A G2U A6G U9G G29U showed a self-cleavage of 0.05.
G5C C8U A26U gave a self-cleavage of 1.53.
Work on U9A A11G G29A C46G yielded a self-cleavage of 0.02.
Variant G5A G7A U20C A24U C46U has a self-cleavage of 0.3.
In the case of C3U A11U G21U U34G A39U, the self-cleavage is reported as 0.02.
G2A C3G G7U A14C C18U A24U C45U showed a self-cleavage of 0.1.
For A11G G27U C46A, the self-cleavage was 0.02.
G19C A41C C42U showed a self-cleavage of 0.17.
For G21A G27C A41G, the self-cleavage was 0.16.
With A4G C18G G36U C37A U38A the self-cleavage was 0.54.
G33U G35U C45G gave a self-cleavage of 0.05.
For A12C U38C G40A, the self-cleavage was 0.01.
A26G G27C U34G U38G showed a self-cleavage of 0.
With G30C U34G C46G the self-cleavage was 0.03.
With G1C A6C G7A A16G C18U G35A C46U the self-cleavage was 0.01.
With A6U G17U C23A G30U G36U the self-cleavage was 0.14.
Variant C3A A12G C31A G35C U38G has a self-cleavage of 0.08.
With C10U G19C G22A A26C G29C A39U the self-cleavage was 0.18.
Work on C3G G5U G35A yielded a self-cleavage of 0.03.
G7C C18A G21A U43A showed a self-cleavage of 0.05.
Work on A6C G7U A12G G27C U34G yielded a self-cleavage of 0.01.
Work on C8G A26G G40C C42A yielded a self-cleavage of 0.
Variant G27U G35U A39U has a self-cleavage of 0.04.
Variant G2A U9C A24U C37U U38G has a self-cleavage of 0.02.
C10U A12G C15A G35U showed a self-cleavage of 0.
Variant A26G G30A C31U has a self-cleavage of 0.21.
For U9C U28G C42U, the self-cleavage was 0.03.
For A12U C37A U43G C46A, the self-cleavage was 0.07.
Work on A11C G33U U38C C46U yielded a self-cleavage of 0.01.
For G1U G7C A11C G17A G33C U34C G36C G44U, the self-cleavage was 0.
Work on G5C G22U G30U A39G yielded a self-cleavage of 0.05.
Work on C8G A26G U28G C42A yielded a self-cleavage of 0.03.
Work on G1U U20C G33U yielded a self-cleavage of 0.07.
For C15U G30A U32A, the self-cleavage was 0.18.
Work on C13U G30A A39G U43A yielded a self-cleavage of 0.03.
For G19A A25C G40C C42A C46A, the self-cleavage was 0.1.
C3U G27U G33C C37A A39U showed a self-cleavage of 0.11.
With C3U A4G U32G the self-cleavage was 0.02.
In the case of C3U C13G G17C, the self-cleavage is reported as 0.09.
With A16U A26U G30A the self-cleavage was 0.09.
A4G C8U C10U G17C A25U G29U G33U showed a self-cleavage of 0.16.
For U20G G27C G30U U32C, the self-cleavage was 0.07.
Work on U32C U38C G40U yielded a self-cleavage of 0.03.
Variant C13G U20A G30C A41U G44A has a self-cleavage of 0.04.
For C13A G19C A39U, the self-cleavage was 0.61.
Work on A4U G5C C10G A12U G30A yielded a self-cleavage of 0.02.
Variant A12G C31U G36U has a self-cleavage of 0.05.
With G1C C3U C37A the self-cleavage was 0.02.
Variant G22U G29C C31U G35A has a self-cleavage of 0.06.
A6U C13A G35C gave a self-cleavage of 0.05.
U32A C37G A39C G44A gave a self-cleavage of 0.04.
Work on G1A G7A C8U U20C C23U G36U C45A yielded a self-cleavage of 0.7.
Work on C10A G27C U34C C45U yielded a self-cleavage of 0.01.
G2C G5C A14G G19A G27C G29A C45G showed a self-cleavage of 0.04.
G5C G17A A25U showed a self-cleavage of 0.02.
For C13U C15U G35U, the self-cleavage was 0.06.
Work on C8A C23A A26G U34A yielded a self-cleavage of 0.53.
For C10U G27A C31A C45G, the self-cleavage was 0.06.
Work on G1A U9C C42G yielded a self-cleavage of 0.06.
G2U U9A G19A G21U showed a self-cleavage of 0.01.
Work on G17U A41G U43G yielded a self-cleavage of 0.
G5A C10G G44U gave a self-cleavage of 0.02.
In the case of C31A G36U C42G G44U, the self-cleavage is reported as 0.02.
With C10G G33C A39U U43G the self-cleavage was 0.01.
Work on U9G C31A G35C yielded a self-cleavage of 0.01.
With A6G C13U G19U A25C C31U C46G the self-cleavage was 0.02.
G17U A24C G27A A41G showed a self-cleavage of 0.09.
With G2A C3A G44C the self-cleavage was 3.
For C3U C8A C23U U28C C45U, the self-cleavage was 0.3.
With G2C A6C C8A A26U C31A the self-cleavage was 0.14.
In the case of A4U G5U G36U, the self-cleavage is reported as 0.02.
C15G A26G A39C A41C gave a self-cleavage of 0.
For A16G G19A C37U C45A, the self-cleavage was 0.
C15A G30A U43C gave a self-cleavage of 0.11.
G2U G5C A26G G29A C37G G40U showed a self-cleavage of 0.03.
U28A G30C C42A gave a self-cleavage of 0.02.
In the case of U28C U32C G44U, the self-cleavage is reported as 0.
Work on G5U U34A G40U yielded a self-cleavage of 0.03.
Work on G17U C42G U43C yielded a self-cleavage of 0.03.
G2A C10A G27C C31G A39G showed a self-cleavage of 0.02.
With C3U C10G G27C G29U the self-cleavage was 0.02.
C13G G35A C45A showed a self-cleavage of 0.02.
A4C C8A A24C G40U gave a self-cleavage of 0.06.
With U9G A11C U32C U43C the self-cleavage was 0.
With G21A A39C C46U the self-cleavage was 0.42.
Work on C23U C42U U43G yielded a self-cleavage of 0.05.
For C3A A6U C18A G21A G33A C42A C46U, the self-cleavage was 0.02.
G5U A12U A25U G27C U32C gave a self-cleavage of 0.05.
In the case of U32A G44U C45A, the self-cleavage is reported as 0.05.
C10A U20A U38C showed a self-cleavage of 0.12.
For A16U G21A G22C G44C, the self-cleavage was 0.05.
A12G C15A A16G A39U gave a self-cleavage of 0.02.
With C10A G17C G30U C42U the self-cleavage was 0.03.
Variant U34G U43G C46A has a self-cleavage of 0.07.
Variant U9C C31U U43C has a self-cleavage of 0.02.
For U9C C13U C15U G30A G40C, the self-cleavage was 0.01.
Work on A12C A14C G30C yielded a self-cleavage of 0.15.
For G17A G27U C45A, the self-cleavage was 0.08.
C10G C15U C45A gave a self-cleavage of 0.03.
Work on C10U G33A U34C yielded a self-cleavage of 0.02.
A11C C18U G22A C31G C42U gave a self-cleavage of 0.01.
With U32G G33C G36U C42G the self-cleavage was 0.02.
Work on C8U G22U G44A yielded a self-cleavage of 0.04.
For A4G G7U A16C A24C C31A U38G A41U, the self-cleavage was 0.01.
Variant G2C G5U A12U has a self-cleavage of 0.02.
A14U C31A C45U showed a self-cleavage of 0.04.
Variant U9C C10U A12C U28G U34G G35A has a self-cleavage of 0.02.
For A6C C10A C13U, the self-cleavage was 0.02.
Work on A12U G17A A26C G35C yielded a self-cleavage of 0.16.
With A14G G27A G35A U38A G40A the self-cleavage was 0.1.
G1C G2U G19C U28G G29U G36U C46A showed a self-cleavage of 0.05.
G2A A26G G30U U38A C46U showed a self-cleavage of 0.13.
G5C G30C G33U G40U showed a self-cleavage of 0.04.
In the case of G7C G33A G35C U43A, the self-cleavage is reported as 0.03.
For G5U G19U C23U U38A, the self-cleavage was 0.03.
With G5U G7C A16U the self-cleavage was 0.1.
For A6C G27A G30C, the self-cleavage was 0.19.
For C3U G5U C10U U20A, the self-cleavage was 0.01.
Work on G2C A14G G17A C31A G36U yielded a self-cleavage of 0.04.
U9G C10A U43A C46G gave a self-cleavage of 0.01.
Work on A14U C18A G35U yielded a self-cleavage of 0.06.
Variant G7U U9G A11C C42A has a self-cleavage of 0.02.
A11G A16C G21A C46U gave a self-cleavage of 0.
Variant G17U U28C C37U has a self-cleavage of 0.02.
In the case of G1A U9G A24C U38G, the self-cleavage is reported as 0.08.
G1C C3A A12U A14C G19U C42A showed a self-cleavage of 0.05.
In the case of G5U C23G G35A, the self-cleavage is reported as 0.07.
C3A G36C C45G gave a self-cleavage of 0.64.
With G5U G7U G22C C23U G35C the self-cleavage was 0.07.
Work on G5U C8U C23U A41U U43A yielded a self-cleavage of 0.2.
In the case of G22C G35U U38A, the self-cleavage is reported as 0.18.
For A6C G17A G30A C37A, the self-cleavage was 0.03.
Work on G19A G29A C42G C45G yielded a self-cleavage of 0.01.
For A14G U32G G36A, the self-cleavage was 0.01.
In the case of C3G G7C U38G, the self-cleavage is reported as 0.05.
Variant A4G A11C A12U has a self-cleavage of 0.01.
For C8A C10A A41C U43A C46U, the self-cleavage was 0.02.
G21C G40A C42A gave a self-cleavage of 0.04.
C3G A12U U20C U32C U34A gave a self-cleavage of 0.05.
A6U C10A G27C U38G gave a self-cleavage of 0.02.
For C3G C15U U20A, the self-cleavage was 0.16.
C3G C10A G17A A26C G33U showed a self-cleavage of 0.05.
Work on G2A G22U U28C C31A U32A yielded a self-cleavage of 0.23.
Work on C15A U20G C37U yielded a self-cleavage of 0.01.
With A4G U28C G29U G44A the self-cleavage was 0.02.
In the case of A4C G21A C45A, the self-cleavage is reported as 0.67.
With C10A A16C C18U U20C the self-cleavage was 0.03.
A12U A14G A25U U28G G35A gave a self-cleavage of 0.02.
G33U C37G A39G showed a self-cleavage of 0.05.
C18G U20C A24U C45A C46U showed a self-cleavage of 0.05.
Work on G30U A41G U43C G44U yielded a self-cleavage of 0.06.
Variant A6G C15A A25C has a self-cleavage of 0.11.
For G5A C10U G22C, the self-cleavage was 0.05.
A6G C18U G21U G44C gave a self-cleavage of 0.16.
C10A G30U A41G showed a self-cleavage of 0.03.
For C8G G19A U34G C37U, the self-cleavage was 0.05.
In the case of A14U G33C C45G, the self-cleavage is reported as 0.01.
In the case of C3G C15U G22U G30C G44A, the self-cleavage is reported as 0.26.
Work on G21U U28G U32C yielded a self-cleavage of 0.08.
Variant G7C G19C G33A G44U has a self-cleavage of 0.27.
With A6U G33C U38A the self-cleavage was 0.03.
Work on A11C C37U C42G yielded a self-cleavage of 0.
C13A A16U C42U gave a self-cleavage of 0.06.
G1C C3A C13G G35U G44U gave a self-cleavage of 0.32.
With A6U A14C C23A the self-cleavage was 0.33.
C3U G7C C10A A16U G19A U38A A39U showed a self-cleavage of 0.02.
C13U G17U C23G gave a self-cleavage of 0.11.
